Measurements as given in the supplement of paper PMC12217912.
The list shows a part of the results. The full chains were built here from the parent and the listed change. Values near 0.05 are background.

B1: TEV protease; numbered along this chain (parent)
chain: MGESLFKGPRDYNPISSSICHLTNESDGHTTSLYGIGFGPFIITNKHLFRRNNGTLVVQSLHGVFKVKDTTTLQQHLVDGRDMIIIRMPKDFPPFPQKLKFREPQREERICLVTTNFQTKSMSSMVSDTSCTFPSGDGIFWKHWIQTKDGQCGSPLVSTRDGFIVGIHSASNFTNTNNYFTSVPKNFMELLTNQEAQQWVSGWRLNADSVLWGGHKVFMVKPEEPFQPVKEATQL

Variants of: B1
Experiment: raw area under fraction-flipped curve 0-4 h after induction (AUC4h, not background-subtracted), DNA-recorder readout of cleavage of the substrate (dimensionless); higher = more cleavage of the substrate by the protease variant
Settings: temperature: 34 °C; time window: 0-4 h after rhamnose induction
Description: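 In vivo DNA recorder in E. coli TOP10(DE3) ΔrhaA at 34 °C. Each TEVp single-site mutant (parent TEVp 0) is paired with a single-site variant of the 7-mer TEVs (canonical ENLYFQ|S). The substrate sits between flexible linkers in a Bxb1-sfGFP-TEVs-SsrA fusion, so cleavage stabilises Bxb1 and speeds flipping of a recombination array, read by NGS. The value is the raw area under the fraction-flipped curve over 0-4 h after rhamnose induction (AUC4h), with ≥20 reads per time point. It is not background-subtracted; inactive controls average about 0.047.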
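Note: Bxb1 expression induced with 0.2% (w/v) L-rhamnose at OD600 near 0.5, cultures sampled hourly, flipped fraction per protease–substrate barcode pair counted by paired-end Illumina sequencing.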

Variant | area with substrate ENLYFQC | area with substrate ENLYFQF | area with substrate ENLYFQG | area with substrate ENLYFQL | area with substrate ENLYFQM | area with substrate ENLYFQN | area with substrate ENLYFQR | area with substrate ENLYFQS | area with substrate ENLYFQT | area with substrate ENLYFQW | area with substrate ENLYFQY | area with substrate ENLYFQD | area with substrate ENLYFQE | area with substrate ENLYFQK | area with substrate ENLYFQH | area with substrate ENLYFQV | area with substrate ENLYFQI | area with substrate ENLYFQP | area with substrate ENLYFQQ
MGESLFKGPRDYNPISSSICHLTNESDGHTTSLYGIGFGPFIITNKHLFRRNNGTLSVQSLHGVFKVKDTTTLQQHLVDGRDMIIIRMPKDFPPFPQKLKFREPQREERICLVTTNFQTKSMSSMVSDTSCTFPSGDGIFWKHWIQTKDGQCGSPLVSTRDGFIVGIHSASNFTNTNNYFTSVPKNFMELLTNQEAQQWVSGWRLNADSVLWGGHKVFMVKPEEPFQPVKEATQL [V57S] | 0.109 | 0.0739 | 0.0888 | 0.0534 | 0.0901 | 0.0914 | 0.0519 | 0.104 | 0.0309 | 0.0536 | 0.0768 | – | – | – | – | – | – | – | –
MGESLFKGPRDYNPISSQICHLTNESDGHTTSLYGIGFGPFIITNKHLFRRNNGTLVVQSLHGVFKVKDTTTLQQHLVDGRDMIIIRMPKDFPPFPQKLKFREPQREERICLVTTNFQTKSMSSMVSDTSCTFPSGDGIFWKHWIQTKDGQCGSPLVSTRDGFIVGIHSASNFTNTNNYFTSVPKNFMELLTNQEAQQWVSGWRLNADSVLWGGHKVFMVKPEEPFQPVKEATQL [S18Q] | 0.115 | – | 0.117 | 0.0719 | 0.0997 | 0.0835 | 0.0693 | 0.117 | 0.0724 | – | – | 0.0842 | 0.0801 | 0.0453 | – | – | – | – | –
MGESLFKGPRDYNPISSSICHLTNESDGHTTSLYGIGFGPQIITNKHLFRRNNGTLVVQSLHGVFKVKDTTTLQQHLVDGRDMIIIRMPKDFPPFPQKLKFREPQREERICLVTTNFQTKSMSSMVSDTSCTFPSGDGIFWKHWIQTKDGQCGSPLVSTRDGFIVGIHSASNFTNTNNYFTSVPKNFMELLTNQEAQQWVSGWRLNADSVLWGGHKVFMVKPEEPFQPVKEATQL [F41Q] | 0.0826 | – | 0.0749 | 0.0961 | 0.076 | – | 0.0571 | 0.077 | 0.0476 | 0.061 | 0.0549 | 0.0616 | 0.0519 | 0.027 | 0.0516 | 0.0624 | – | – | –
MGESLFKGPRDYNPISSSICHLTNESDGHTTSLYGIGFGPFIDTNKHLFRRNNGTLVVQSLHGVFKVKDTTTLQQHLVDGRDMIIIRMPKDFPPFPQKLKFREPQREERICLVTTNFQTKSMSSMVSDTSCTFPSGDGIFWKHWIQTKDGQCGSPLVSTRDGFIVGIHSASNFTNTNNYFTSVPKNFMELLTNQEAQQWVSGWRLNADSVLWGGHKVFMVKPEEPFQPVKEATQL [I43D] | 0.06 | – | 0.0448 | 0.0458 | 0.0397 | 0.0442 | 0.0405 | 0.0422 | 0.0406 | 0.0415 | 0.049 | 0.0473 | – | 0.0457 | 0.0082 | – | 0.0399 | 0.0453 | 0.0347
MGESLFKGPRDYNPISSSICHLTNESDGHTTSLYGIGFGPFIITNKHLFRRNDGTLVVQSLHGVFKVKDTTTLQQHLVDGRDMIIIRMPKDFPPFPQKLKFREPQREERICLVTTNFQTKSMSSMVSDTSCTFPSGDGIFWKHWIQTKDGQCGSPLVSTRDGFIVGIHSASNFTNTNNYFTSVPKNFMELLTNQEAQQWVSGWRLNADSVLWGGHKVFMVKPEEPFQPVKEATQL [N53D] | 0.12 | – | 0.137 | – | 0.0751 | 0.0782 | 0.0671 | 0.114 | 0.0757 | – | 0.0966 | – | – | 0.0589 | – | 0.0668 | 0.0517 | – | –
MGESLFKGPRDYNPISSSICHYTNESDGHTTSLYGIGFGPFIITNKHLFRRNNGTLVVQSLHGVFKVKDTTTLQQHLVDGRDMIIIRMPKDFPPFPQKLKFREPQREERICLVTTNFQTKSMSSMVSDTSCTFPSGDGIFWKHWIQTKDGQCGSPLVSTRDGFIVGIHSASNFTNTNNYFTSVPKNFMELLTNQEAQQWVSGWRLNADSVLWGGHKVFMVKPEEPFQPVKEATQL [L22Y] | 0.0382 | 0.0542 | – | – | – | 0.0487 | 0.0481 | 0.0519 | 0.0398 | – | 0.0494 | – | 0.0407 | 0.0498 | 0.0504 | – | 0.0461 | – | 0.0472
MGESLFKGPRDYNPISSSICHLTNESSGHTTSLYGIGFGPFIITNKHLFRRNNGTLVVQSLHGVFKVKDTTTLQQHLVDGRDMIIIRMPKDFPPFPQKLKFREPQREERICLVTTNFQTKSMSSMVSDTSCTFPSGDGIFWKHWIQTKDGQCGSPLVSTRDGFIVGIHSASNFTNTNNYFTSVPKNFMELLTNQEAQQWVSGWRLNADSVLWGGHKVFMVKPEEPFQPVKEATQL [D27S] | 0.0949 | – | 0.0835 | 0.056 | 0.0708 | – | 0.0631 | 0.0924 | 0.0508 | 0.067 | – | 0.0675 | – | – | 0.0687 | 0.0652 | 0.0539 | 0.0562 | –
MGESLFKGPRDYNPISSSICHLTNESGGHTTSLYGIGFGPFIITNKHLFRRNNGTLVVQSLHGVFKVKDTTTLQQHLVDGRDMIIIRMPKDFPPFPQKLKFREPQREERICLVTTNFQTKSMSSMVSDTSCTFPSGDGIFWKHWIQTKDGQCGSPLVSTRDGFIVGIHSASNFTNTNNYFTSVPKNFMELLTNQEAQQWVSGWRLNADSVLWGGHKVFMVKPEEPFQPVKEATQL [D27G] | 0.129 | 0.0931 | 0.0885 | 0.0568 | – | – | 0.0439 | 0.098 | 0.0633 | – | 0.094 | 0.0751 | – | 0.0718 | 0.0872 | – | 0.057 | – | –
MGESLFKGPRDYNPISSSICHLTNESDGTTTSLYGIGFGPFIITNKHLFRRNNGTLVVQSLHGVFKVKDTTTLQQHLVDGRDMIIIRMPKDFPPFPQKLKFREPQREERICLVTTNFQTKSMSSMVSDTSCTFPSGDGIFWKHWIQTKDGQCGSPLVSTRDGFIVGIHSASNFTNTNNYFTSVPKNFMELLTNQEAQQWVSGWRLNADSVLWGGHKVFMVKPEEPFQPVKEATQL [H29T] | 0.103 | 0.0636 | 0.165 | 0.0737 | 0.0863 | 0.122 | 0.0481 | 0.107 | – | 0.0858 | 0.079 | – | – | 0.023 | 0.072 | – | 0.0573 | 0.0688 | –
